Measured values from patent publication US20250326835A1, “USE OF ANTI-CLAUDIN-1 ANTIBODIES TO TREAT CHOLANGIOCARCINOMA” (Alentis Therapeutics AG, priority 2022, published 2025).

What was measured:
[1] = tested on: HuCC-T1 (intrahepatic CCA) cell line; test: HuCC-T1 cell line-derived xenograft (CDX) mouse model, tumor growth; type: in vivo; conditions: HuCC-T1 CDX NSG mice, 25 mg/kg i.p. once per week for 6 weeks vs PBS; p<0.05
Description: (§1) To assess the in vivo anti-tumorigenic activity of an anti-CLDN1 monoclonal (CLDN1 mAb H3L3) antibody in CCA, anti-CLDN1 mAb's effect on tumor growth was investigated in both intrahepatic CCA and extrahepatic CCA cell line-derived xenograft (CDX) mouse models.
(§2) Non-Obese Diabetic Rag1^−/−IL2Rgc^−/− (NRG) were subcutaneously injected with 5×10^6 cells of HuCC-A1 (intrahepatic CCA) or EGI-1 (extrahepatic CCA) cell line. Non-Obese Diabetic Prkdc^scidIL2Rg^−/− (NSG) were subcutaneously injected with 5×10^6 cells of the HuCC-T1 (intrahepatic CCA) cell line. When the average tumor volumes reached 40-50 mm^3, mice were randomized into two different groups and treated for 6 weeks with the anti-CLDN1 mAb H3L3 (25 mg/kg i.p. once per week), or with vehicle control (PBS i.p. once per week). Tumor growth was monitored using a digital caliper and tumor volume was calculated using the ½ (length×width^2) formula. (FIG. 2A).

[2] = tested on: EGI-1 (extrahepatic CCA) cell line; test: EGI-1 cell line-derived xenograft (CDX) mouse model, tumor growth and skin ulceration; type: in vivo
Description: as §1, §2

[3] = tested on: HuCC-A1 (intrahepatic CCA) cell line; test: HuCC-A1 cell line-derived xenograft (CDX) mouse model, tumor growth; type: in vivo; conditions: HuCC-A1 CDX NRG mice, 25 mg/kg i.p. once per week for 6 weeks vs PBS; p<0.001
Description: as §1, §2

EGI-1 cells = test: Transwell Matrigel invasion assay, EGI-1; type: cell-based, human; conditions: EGI-1, 20 μg/mL for 3 days vs isotype control mAb; p=0.02
Description: In an additional study, a transwell invasion assay was used to assess the effect of anti-CLDN1 mAb H3L3 treatment on cancer invasion. In this assay, EGI-1 or HuCC-T1 cells were seeded in 12 well plates and treated with 20 μg/mL isotype control mAb or with 20 μg/mL anti-CLDN1 mAb H3L3 (Colpitts et al., 67(4) Gut 736-745 (March 2017)) for 3 days. 0.5×10^5 cells were then seeded in transwells (8-μm pore polycarbonate membrane insert) in 24-well dishes with 75 μl Matrigel (Corning) and serum-free medium (1:20). Following solidification for 10 minutes in the incubator (37° C., 5% CO2), 600 μL of 1% serum-supplemented medium was added to the bottom wells. Non-invading cells were removed by scrubbing with cotton swabs, and invading cells were fixed using 70% ethanol and stained with crystal violet (0.2%) after 72 hours. Cells on the underside of the membranes were then visualized in 5 randomly selected fields and quantified using ImageJ. Each experiment was independently repeated at least three times.

EGI-1 CDX tumor samples = test: Western blot of key signaling pathways in EGI-1 CDX tumor samples; type: in vivo, mouse; conditions: EGI-1 CDX tumors, Western blot quantification vs control
Description: To further investigate the antitumoral effect of CLDN1-targeting mAb, key signaling pathways implicated in CCA development and progression were analyzed in EGI-1 CDX tumor samples (FIGS. 4B-4C).
For protein extraction from CDX tumors, tumor pieces were lysed with lysis buffer (Triton 1%; NaCl 50 mM; Tris 50 mM pH 7.6; MgCl2 2 mM in ddH2O) supplemented with proteinase inhibitors (Roche) and phosphatase inhibitors (Sigma Phosphatase Cocktail number 2 and 3) during 30 min at 4° C. Then the samples were centrifuged at 10000×g for 10 min and the supernatant was collected. Protein quantification was assessed with Thermo Scientific BCA Kit. Gels were prepared following the Biorad TGX gel protocol (BioRad). The gels were transferred using the Biorad trans blot turbo protocol (BioRad) into PVDF membranes. Blocking of the membranes was performed with 5% BSA in TBS-T for 1 h. The membranes were incubated with YAP/TAZ (D24E4) Rabbit mAb (#8418, Cell Signaling Technology), Phospho-YAP (Ser127) (D9W2I) Rabbit mAb (#13008, Cell Signaling Technology), SRC Rabbit mAb (#21085, Cell Signaling Technology), Phospho-SRC (Tyr416) Rabbit mAb (#21015, Cell Signaling Technology), Notch1 (D1E11) XP® Rabbit mAb (#3608, Cell Signaling Technology), Cleaved Notch1 (Val1744) (D3B8) Rabbit mAb (#4147, Cell Signaling Technology) and monoclonal anti-β-Actin antibody produced in mouse (Sigma) in 2.5% BSA in TBS-T with a dilution of 1:1000 overnight at 4° C. The membranes were incubated with Horseradish Peroxidase conjugated secondary antibodies in 2.5% BSA in TBS-T with a dilution of 1:10000 for 1 h at room temperature. Protein immunodetection of the membranes was performed with Clarity ECL Western Blot Substrate (Biorad) in a ChemiDoc MP Imaging System (Biorad). Immunoblot images were analyzed using Image Lab Software v6.1 (Biorad).

B1: anti-CLDN1 mAb H3L3: humanized anti-Claudin-1 monoclonal antibody; heavy chain SEQ ID NO: 11, light chain SEQ ID NO: 12 (VH SEQ 13, VL SEQ 14) (antibody)
heavy: QVQLVESGGGVVQPGRSLRLSCLGSGFSFSSYGMNWVRQAPGKGLEWVASISPSGSYFYYADSVKGRFTISRDNSKNTLYLQMTSLRAEDTAIYYCARLPGFNPPFDHWGQGTLVTVSSASTKGPSVFPLAPSSKSTSGGTAALGCLVKDYFPEPVTVSWNSGALTSGVHTFPAVLQSSGLYSLSSVVTVPSSSLGTQTYICNVNHKPSNTKVDKRV[no letters for human IgG1 Fc]
light: DIQMTQSPSSLSASVGDRVTITCKASQNVGGNVDWYQWKPGKAPKLLIYGASNRYTGVPDRFRGSGSGTDFTLTISSLQPEDVATYYCLQYKNNPWTFGGGTKVEIKRTVAAPSVFIFPPSDEQLKSGTASVVCLLNNFYPREAKVQWKVDNALQSGNSQESVTEQDSKDSTYSLSSTLTLSKADYEKHKVYACEVTHQGLSSPVTKSFNRGEC
modifications: H3L3 Heavy Chain; H3L3 Light Chain
[1]
  tumor growth (tumor volume): delayed tumor growth
[2]; EGI-1 CDX NRG mice, 25 mg/kg i.p. once per week for 6 weeks vs PBS, p<0.05
  tumor growth (tumor volume): delayed tumor growth
[2]; EGI-1 CDX model, 25 mg/kg i.p. once per week vs PBS, p<0.01
  skin ulceration induced by tumors: significant reduction of skin ulceration
[3]
  tumor growth (tumor volume): Strong and robust inhibition of tumor growth
EGI-1 cells
  number of invasive cells: markedly and significantly decreased
EGI-1 CDX tumor samples; p<0.0001
  SRC phosphorylation: significant decrease
EGI-1 CDX tumor samples; p<0.001
  cleaved Notch1: reduction
EGI-1 CDX tumor samples; p<0.01
  YAP S127 phosphorylation: strong increase
